In all, about 33,000 sequences were measured (“E-score (-0.5 to 0.5)”: median about -0.032, highest 2% from about 0.36 on). The list shows a part of the results.
Each sequence was assayed against T1, Sko1 (UniProt Q02100) (assay: PBM E-score (8-mer binding enrichment) (E-score (-0.5 to 0.5)); higher = stronger / more preferred TF binding; most listed sequences are background and not binding sites). Details: protein concentration: 200 nM; construct: GST-full length.
T1 sequence: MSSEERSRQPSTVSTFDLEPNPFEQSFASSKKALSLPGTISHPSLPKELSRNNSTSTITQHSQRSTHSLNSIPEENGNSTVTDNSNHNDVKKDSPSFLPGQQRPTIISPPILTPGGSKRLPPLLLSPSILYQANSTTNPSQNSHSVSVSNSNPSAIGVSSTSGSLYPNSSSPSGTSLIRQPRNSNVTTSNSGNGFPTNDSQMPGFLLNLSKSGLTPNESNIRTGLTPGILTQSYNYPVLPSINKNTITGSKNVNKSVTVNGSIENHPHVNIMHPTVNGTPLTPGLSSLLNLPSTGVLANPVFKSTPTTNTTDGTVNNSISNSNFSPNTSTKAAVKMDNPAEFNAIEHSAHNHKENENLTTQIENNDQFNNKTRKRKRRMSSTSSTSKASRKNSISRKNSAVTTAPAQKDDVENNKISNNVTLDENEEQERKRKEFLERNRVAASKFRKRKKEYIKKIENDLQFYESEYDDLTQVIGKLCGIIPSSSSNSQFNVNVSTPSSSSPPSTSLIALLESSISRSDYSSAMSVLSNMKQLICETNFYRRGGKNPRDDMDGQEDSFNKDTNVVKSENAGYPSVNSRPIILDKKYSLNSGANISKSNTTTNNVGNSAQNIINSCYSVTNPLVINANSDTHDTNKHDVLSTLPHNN
Method in brief: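 Each ungapped eight-base word and its reverse complement, pooled, received an E-score from the Universal PBM Analysis Suite. Underlying scans, normalised with masliner, recorded fluorescent anti-GST bound to GST-tagged yeast transcription factors. These were applied at about 100-200 nM to universal all-10-mer Agilent arrays double-stranded by primer extension.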

Row | Sequence | PBM E-score
1 | AATAGTAG | 0.178
2 | GTTTGATA | 0.0708
3 | CGCAATTA | 0.325
4 | AAAGTACG | 0.289
5 | GTCATACA | 0.324
6 | AACACTTA | 0.172
7 | GCGAAAAC | -0.149
8 | CATGGATA | -0.0358
9 | AATAACGT | 0.426
10 | ATAACAGG | -0.0069
11 | CGGGAGTC | -0.258
12 | CGTTAACA | 0.132
13 | GAGCTAGC | -0.097
14 | AAGATGAG | -0.0442
15 | CTCGCTAC | -0.088
16 | CCAAGGGG | -0.175
17 | GATAGTGA | 0.162
18 | GAGCCATA | -0.147
19 | AAACCATA | 0.089
20 | AAGAGCAC | 0.122
21 | CCACGCGA | 0.00647
22 | CGTGTCGC | 0.131
23 | ACAGTCAG | 0.0824
24 | CACCAACC | -0.0383
25 | ACAATTAA | 0.235

Row | Sequence | PBM E-score
26 | AGAAGCGA | 0.025
27 | CAATCAGA | 0.0708
28 | CACACTGG | -0.283
29 | AATTGAAA | 0.293
30 | TGTAGTAA | 0.182
31 | CATCATTC | 0.218
32 | ATGTGAAG | 0.205
33 | GATAATCA | 0.0912
34 | CACTGAGG | -0.043
35 | ATTCTGAC | 0.177
36 | CCAGAATC | -0.0652
37 | GCTCTAAC | -0.0398
38 | CAGAAGTA | 0.0595
39 | CTCGGCTC | -0.305
40 | GCAGCCAA | 0.0509
41 | CATGGGGC | -0.191
42 | ATGAGTGA | 0.143
43 | AGGTAAGC | -0.163
44 | TCAACCCA | 0.0361
45 | TCAGTGGA | -0.176
46 | CCAGCCGG | -0.316
47 | ACAAACGA | 0.207
48 | TCAAAAAA | 0.107
49 | AGTGATAG | -0.111
50 | TGCACGAA | 0.217

Row | Sequence | PBM E-score
51 | ACTGTTAT | 0.2
52 | AAGTAACT | 0.153
53 | ATCTGCAT | 0.0514
54 | GCCTCACA | 0.0584
55 | ATCGACCG | -0.213
56 | CGAGTTGC | 0.0182
57 | CGAAATCA | 0.294
58 | CGAGAAGA | -0.0201
59 | CTGGGCGA | -0.308
60 | AAGGCGAT | 0.0623
61 | ATCGCGAA | 0.0672
62 | GCCTTGAC | -0.0622
63 | AAGTAACA | 0.0118
64 | AAAAAGGT | -0.0544
65 | ACTACGAG | 0.162
66 | CCGCTGAA | -0.0549
67 | CCTGCTCA | -0.126
68 | AATCGCAT | -0.00604
69 | CCAACACA | 0.132
70 | TATTTGAA | 0.0785
71 | ATTGAAGC | -0.0571
72 | AAGGTCTA | -0.216
73 | ACTCATAC | 0.134
74 | CTTAGACA | -0.0184
75 | CTAGTAGC | -0.0469

Row | Sequence | PBM E-score
76 | CCAGCGGC | -0.149
77 | CCTTAGCG | -0.185
78 | GCCCAGAA | -0.194
79 | GCGCGCAC | 0.127
80 | CGGTGACG | 0.449
81 | CTCATCTC | 0.0458
82 | ATAACTAT | 0.129
83 | TACTAATA | 0.251
84 | GGCATGAC | 0.184
85 | AATCCGGA | 0.0142
86 | AATGCGTG | 0.214
87 | CGCCTCAA | -0.207
88 | CACTTTTA | 0.0638
89 | CGTGTGTA | 0.294
90 | AACGCGAA | 0.0822
91 | GTCGAGTA | -0.112
92 | GTTAGACA | 0.136
93 | AGTGAGTA | 0.241
94 | ACGCCGCC | -0.104
95 | GGCTCTTA | -0.236
96 | CATATGCG | 0.0797
97 | AACCTCAA | 0.0294
98 | GTCCGGTA | -0.135
99 | ATTTACCG | 0.0597
100 | CGTATTTC | 0.367

Row | Sequence | PBM E-score
101 | ATGGATCC | -0.133
102 | GATTCGAC | -0.0624
103 | ATGGGGTA | -0.11
104 | TCGGAAGA | 0.0306
105 | CGAGGACG | -0.136
106 | GTACCAAA | 0.191
107 | GGGTTGTA | -0.19
108 | TGCGCGAA | 0.169
109 | TCCATCGA | 0.0508
110 | GGTAGAGA | -0.0375
111 | AAATCGCG | 0.0444
112 | TCTACTAA | 0.0947
113 | CAATACCA | 0.155
114 | ACGGAGCA | -0.116
115 | ACTTTACT | 0.0486
116 | CAACTGGC | -0.0932
117 | CCTCCACC | -0.283
118 | ACGATCAA | 0.148
119 | GAGATCGA | 0.0574
120 | GCTGACCC | -0.164
121 | GCGGCGAA | -0.21
122 | GGGCTTAA | -0.0276
123 | TAGTAGAA | -0.0897
124 | ATTGTAGA | 0.12
125 | ATACAGTG | 0.106

Row | Sequence | PBM E-score
126 | ACTTGGTA | 0.0545
127 | CTGGGGAC | -0.303
128 | GGGGTACC | -0.331
129 | AGTTATTC | 0.0588
130 | AAGCCTTA | -0.162
131 | AAAGACTG | -0.0799
132 | GTCGTGCA | 0.0146
133 | AGGGTAGG | -0.18
134 | AGTGGTTA | -0.0118
135 | CCATACGC | 0.177
136 | AAGATCAA | 0.0987
137 | GACACTAA | -0.122
138 | GATCTCAC | -0.0255
139 | ATCTATGC | 0.0234
140 | TCTCGTCA | 0.365
141 | CCGACTAA | -0.131
142 | GTTGCAAA | 0.167
143 | AATTAATC | 0.199
144 | AATAGCCA | 0.204
145 | AGGGTCTC | -0.27
146 | CTGCATGC | 0.0302
147 | CTCCGCGC | -0.267
148 | AGTGCCTC | -0.251
149 | CGCGATAG | 0.0737
150 | AACAGCCC | -0.0423

Row | Sequence | PBM E-score
151 | ATCGTACG | 0.282
152 | AAACGCAC | 0.171
153 | GAGAACTC | -0.157
154 | CCCAGGTA | -0.256
155 | CCCCTCGA | -0.143
156 | CAATGGGC | -0.181
157 | GCTTATAC | -0.00941
158 | AGAGAGTA | -0.0216
159 | TCTGGAAA | 0.149
160 | GAGGCAAC | -0.144
161 | GTTGGTAA | 0.218
162 | ACGTCCAA | 0.288
163 | AAGGGATG | -0.0159
164 | TCCACCGA | -0.163
165 | CGCTGCTA | -0.315
166 | CGTGGAGA | 0.11
167 | ATGAGCGG | -0.135
168 | ACGATTCG | 0.059
169 | GGCTTAAC | 0.00826
170 | TACTGCTA | -0.159
171 | AGGGCCCT | -0.323
172 | ATCTGCTC | -0.145
173 | AAACACAT | 0.123
174 | AAATGACT | 0.0649
175 | GCAGGTTA | -0.156

Row | Sequence | PBM E-score
176 | ACTGCGGG | -0.206
177 | ATCAGACG | 0.0845
178 | ATCCTCGG | -0.262
179 | AGTCGTAC | 0.101
180 | TGGAGCAA | -0.0445
181 | AGAATAGC | 0.073
182 | CCCAATAA | -0.0416
183 | GCGTTGAC | 0.184
184 | ACGAGGGG | -0.265
185 | AAAGTCAT | 0.161
186 | AGCCATTG | -0.03
187 | CACGAGGG | -0.153
188 | AGGACTAA | -0.134
189 | AGATCCAC | -0.0646
190 | AATGTGAC | 0.2
191 | GAGCGGAA | -0.0681
192 | ACAGGTAG | -0.135
193 | AGCAAGGA | -0.207
194 | CGTGTGCA | 0.181
195 | AAACGCGC | 0.0607
196 | CACCCGTC | -0.0108
197 | CAAGTGGG | -0.0643
198 | AAGTGTAA | -0.2
199 | ACTCACTG | -0.0231
200 | CAACGGCC | -0.335

Row | Sequence | PBM E-score
201 | AACAACAA | 0.146
202 | CAATGCGA | 0.126
203 | CGCCCAAC | -0.115
204 | ACCGCTGG | -0.176
205 | AGGGACAG | -0.405
206 | AGAGTAAT | 0.13
207 | TCATTGCA | 0.244
208 | GAACTCGC | 0.0362
209 | TCTCAACA | 0.136
210 | CCCGCGCC | -0.318
211 | AGAACGTA | 0.366
212 | AATTAGCG | 0.047
213 | ACTTCCAG | -0.179
214 | AGTAGCCG | -0.131
215 | AGGTCCGA | -0.117
216 | CTAGCTCC | -0.101
217 | GAAGAGGA | -0.331
218 | ACTCTTCT | -0.177
219 | AATGTCTC | -0.0826
